Reference: patent publication US20180066036A1 (APOGENIX, published 2018)

Assays:
[1] = biological target: T1, human CD40-Fc (Enzo, catalogue number ALX-522-016-C050) (human, UniProt P25942 fragment); assay: QCM (Attana A100), human CD40-Fc immobilized, analyte at 1, 5 and 10 µg/ml
T1 construct: Bought reagent; also called immobilized CD40-receptor; not shown: Fc part of the bought fusion protein, not described
Procedure: The equilibrium binding constants (KD) of trivalent constructs of CD40L (e.g.: PROTEIN X) and hexavalent constructs of CD40L (e.g. PROTEIN A, PROTEIN B, and PROTEIN C) to CD40 was calculated based on kinetic binding data (kₒₙ and koff) determined with an automated biosensor system (Attana A100). The A100 allows to investigate molecular interactions in real-time based on the Quartz Crystal Microbalance (QCM) technique.
For this purpose human CD40-Fc, purchased from Enzo (catalogue number: ALX-522-016-C050), was immobilized on the surface of a carboxyl-activated QCM-chip. Trimeric and hexameric CD40L-constructs were used as soluble analyte at concentrations of 1, 5, and 10 μg/ml. Binding (kₒₙ) and dissociation (koff) was analyzed.

[2] = biological target: CD40 (native receptor on the surface of human cells) (human, UniProt P25942 21-277); assay: cell-based or functional assay

Row | Kd [1] [nM] | CD86 (MFI), monocytes 3 d, 10 ng/mL [2] [MFI] | CD86 (MFI), monocytes 3 d, 100 ng/mL [2] [MFI] | CD86 (MFI), monocytes 3 d, 1000 ng/mL [2] [MFI] | HLA-DR,DP (MFI), monocytes 3 d, 10 ng/mL [2] [MFI] | HLA-DR,DP (MFI), monocytes 3 d, 100 ng/mL [2] [MFI] | HLA-DR,DP (MFI), monocytes 3 d, 1000 ng/mL [2] [MFI] | Percentage of macrophages that are CD86+, 3 d, 10 ng/mL [2] [%] | Percentage of macrophages that are CD86+, 3 d, 100 ng/mL [2] [%] | Percentage of macrophages that are CD86+, 3 d, 1000 ng/mL [2] [%] | Percentage of macrophages that are CD206+ and CD163+ (M2-like), 3 d, 10 ng/mL [2] [%] | Percentage of macrophages that are CD206+ and CD163+ (M2-like), 3 d, 100 ng/mL [2] [%] | Percentage of macrophages that are CD206+ and CD163+ (M2-like), 3 d, 1000 ng/mL [2] [%] | Percentage of macrophages that are HLA-DR,DP+, 3 d, 10 ng/mL [2] [%] | Percentage of macrophages that are HLA-DR,DP+, 3 d, 100 ng/mL [2] [%] | Percentage of macrophages that are HLA-DR,DP+, 3 d, 1000 ng/mL [2] [%] | Binder
1 | 0.152 | 17 | 39 | 47 | 39 | 54 | 55 | 30 | 58 | 64 | 3 | 2 | 1 | 20 | 35 | 37 | PROTEIN B (Fc fusion, also called scCD40L-RBD-Fc; AGP1233) QIAAHVISEASSKTTSVLQWAEKGYYTMSNNLVTLENGKQLTVKRQGLYYIYAQVTFCSNREASSQAPFIASLSLKSPGRFERILLRAANTHSSAKPCGQQSIHLGGVFELQPGASVFVNVTDPSQVSHGTGFTSFGLLKLGSGSGNGSQIAAHVISEASSKTTSVLQWAEKGYYTMSNNLVTLENGKQLTVKRQGLYYIYAQVTFCSNREASSQAPFIASLSLKSPGRFERILLRAANTHSSAKPCGQQSIHLGGVFELQPGASVFVNVTDPSQVSHGTGFTSFGLLKLGSGSGNGSQIAAHVISEASSKTTSVLQWAEKGYYTMSNNLVTLENGKQLTVKRQGLYYIYAQVTFCSNREASSQAPFIASLSLKSPGRFERILLRAANTHSSAKPCGQQSIHLGGVFELQPGASVFVNVTDPSQVSHGTGFTSFGLLKLGSGSSSSSSSSG[gap - human IgG1 Fc with N297S (EU numbers)]SSSSSAWSHPQFEK
2 | 0.167 |  |  |  |  |  |  |  |  |  |  |  |  |  |  |  | PROTEIN A (Fc fusion, Strep-tagged form, detected by anti-StrepTagII in the cell assay; also called hexavalent scCD40L-RBD-FC fusion protein PROTEIN A) QIAAHVISEASSKTTSVLQWAEKGYYTMSNNLVTLENGKQLTVKRQGLYYIYAQVTFCSNREASSQAPFIASLCLKSPGRFERILLRAANTHSSAKPCGQQSIHLGGVFELQPGASVFVNVTDPSQVSHGTGFTSFGLLKLGSGSGNGSQIAAHVISEASSKTTSVLQWAEKGYYTMSNNLVTLENGKQLTVKRQGLYYIYAQVTFCSNREASSQAPFIASLCLKSPGRFERILLRAANTHSSAKPCGQQSIHLGGVFELQPGASVFVNVTDPSQVSHGTGFTSFGLLKLGSGSGNGSQIAAHVISEASSKTTSVLQWAEKGYYTMSNNLVTLENGKQLTVKRQGLYYIYAQVTFCSNREASSQAPFIASLCLKSPGRFERILLRAANTHSSAKPCGQQSIHLGGVFELQPGASVFVNVTDPSQVSHGTGFTSFGLLKLGSGSSSSSSSSG[gap - human IgG1 Fc with N297S (EU numbers)]SSSSSAWSHPQFEK
3 | 0.176 |  |  |  |  |  |  |  |  |  |  |  |  |  |  |  | PROTEIN C (Fc fusion) QIAAHVISEASSKTTSVLQWAEKGYYTMSNNLVTLENGKQLTVKRQGLYYIYAQVTFCSNREASSQAPFIASLALKSPGRFERILLRAANTHSSAKPCGQQSIHLGGVFELQPGASVFVNVTDPSQVSHGTGFTSFGLLKLGSGSGNGSQIAAHVISEASSKTTSVLQWAEKGYYTMSNNLVTLENGKQLTVKRQGLYYIYAQVTFCSNREASSQAPFIASLALKSPGRFERILLRAANTHSSAKPCGQQSIHLGGVFELQPGASVFVNVTDPSQVSHGTGFTSFGLLKLGSGSGNGSQIAAHVISEASSKTTSVLQWAEKGYYTMSNNLVTLENGKQLTVKRQGLYYIYAQVTFCSNREASSQAPFIASLALKSPGRFERILLRAANTHSSAKPCGQQSIHLGGVFELQPGASVFVNVTDPSQVSHGTGFTSFGLLKLGSGSSSSSSSSG[gap - human IgG1 Fc with N297S (EU numbers)]SSSSSAWSHPQFEK
